According to PubChem BioAssay AID1347071 (National Center for Advancing Translational Sciences (NCATS), 2019):
The campaign covered roughly 410,000 compounds. About 260 (0.063%) were called active. The shares of active, inactive and inconclusive entries below differ from those in the screen. Calls come from the whole dose curve; as a rule, active = well fitted activation curve with a large enough effect; inconclusive = small, poorly fitted or top-dose-only effect; inactive = no such curve, though single readings can be large or run the other way. Potencies of inconclusive entries are left out as doubtful fits.

test: qHTS for compounds that reverse cellular toxicity of Amyloid beta (A-beta) peptide in yeast: Primary Screen; conditions: yeast expressing A-beta42, growth rescue, OD600, 48 h; growth rescue: at 46.1 µM (top of the series), 0% DMSO, 100% iron-clioquinol control; note: nearly all actives have a fitted effect of over 55% in size
In short: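 Yeast A-beta toxicity model in growth medium with pinned compounds, 48 h at 30 C; growth read as absorbance at 600 nm. Normalized to FeCl3/clioquinol equimolar mix (positive) and DMSO (negative).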
Potency is the fitted concentration of half-maximal effect; tags give direction and shape of the fitted curve.

SMILES | Potency | growth rescue
CCCN(C(=O)NCc1noc2ccc(C)cc12)c1ccc(Cl)c(Cl)c1 | inconclusive [activator, single point] | –
Cc1cc(C)c(/C=N/NC(=O)c2nnn(-c3nonc3N)c2COc2ccc(F)cc2)c(C)c1 | – | inactive: 7.43%
CCCCCCCCCc1conc1C(=O)/C=C/c1oc2c(c1C)CCC(C)C2 (stereo not given) | – | inactive: -9.03%
CCOc1ccc(NC(=S)Nc2cccc3ccccc23)cc1 | inconclusive [activator, partial curve, poor fit] | –
Cc1ccc(C)c(-n2ccnc2SCC(=O)c2c(N)n(C3CC3)c(=O)[nH]c2=O)c1 | inconclusive [activator, single point] | –
COc1ccc(C(C)(O)c2nc(-c3ccc(Cl)cc3)cs2)cc1 (stereo not given) | inconclusive [activator, partial curve, poor fit] | –
COc1ccc(CCNC(=O)Cn2c(-c3cccs3)cc3cc(F)ccc32)cc1OC | – | inactive: 11.7%
CCC(=O)Nc1nc2c(OC)ccc(C)c2s1 | inconclusive [activator, single point] | –
COc1ccc(CC(=S)NCCc2ccccc2)cc1 | inconclusive [activator, single point] | –
CC1=C(C(=O)N2CCCCCC2)CC(CC(=O)NC2CCCC2)C(=O)N1Cc1ccccc1 (stereo not given) | – | inactive: -6.48%
Fc1cccc(CSc2nc(NCCc3ccccc3)c3ccccc3n2)c1 | – | inactive: -16.4%
COc1cnc(-c2ccccn2)nc1Oc1ccc(Cl)cc1 | inconclusive [activator, partial curve, poor fit] | –
c1ccc2c(c1)oc1c(NCCCn3ccnc3)ncnc12 | – | inactive: 8.94%
CCc1n[nH]c(=S)n1/N=C/c1ccc(N(C)c2ccccc2)cc1 | inconclusive [activator, single point] | –
C1=C(c2ccccc2)Nc2nnnn2C1c1cccs1 (stereo not given) | inconclusive [activator, full curve] | –
CC(C(=O)N1CCc2ccccc21)N1CCN(S(=O)(=O)c2cccc(C(F)(F)F)c2)CC1 (stereo not given) | inconclusive [activator, partial curve, poor fit] | –
N#C/C(=C\c1ccc(Cl)cc1)C(=O)NC1CC1 | inconclusive [activator, partial curve, poor fit] | –
S=C(Cc1ccccc1)Nc1ccccc1 | – | inactive: 18.6%
CCCC(=O)Nc1cccc(-c2nc3cc(C)c(C)cc3o2)c1C | – | inactive: 5.71%
Cc1cc(NS(=O)(=O)c2ccc(-c3ccccc3)cc2)no1 | inconclusive [activator, full curve, poor fit] | –
